Assay results from a compilation of properties of binary mixtures (doi:10.1007/s10973-018-7427-0).
Some of these densities may be calculated back from excess volumes.

Assay: xn = mol fraction of the nth substance listed
Conditions: 100 kPa

With `CCCC[n+]1ccn(C)c1.F[P-](F)(F)(F)(F)F` + C=CN1CCCC1=O the mass density (298.15 K, x1 = 1) was 1367.2 kg/m3, the mass density (303.15 K, x1 = 1) was 1363 kg/m3 and the mass density (308.15 K, x1 = 1) was 1358.7 kg/m3. The mass density (313.15 K, x1 = 1) was 1354.5 kg/m3, the mass density (318.15 K, x1 = 1) was 1350.2 kg/m3 and the mass density (323.15 K, x1 = 1) was 1346 kg/m3.

In the case of `C=CN1CCCC1=O` + CCCC[n+]1ccn(C)c1.F[P-](F)(F)(F)(F)F, the mass density (298.15 K, x2 = 0) is reported as 1039.4 kg/m3, the mass density (298.15 K, x2 = 0.2059) is reported as 1156.1 kg/m3 and the mass density (298.15 K, x2 = 0.3019) is reported as 1197 kg/m3. The mass density (298.15 K, x2 = 0.3937) was 1230.3 kg/m3, the mass density (298.15 K, x2 = 0.5023) was 1264 kg/m3 and the mass density (298.15 K, x2 = 0.584) was 1286 kg/m3. The mass density (298.15 K, x2 = 0.6946) was 1311.9 kg/m3, the mass density (298.15 K, x2 = 0.7788) was 1329.3 kg/m3 and the mass density (298.15 K, x2 = 0.8707) was 1346.3 kg/m3. For the same compound, the mass density (303.15 K, x2 = 0.1011) was 1098.2 kg/m3, the mass density (303.15 K, x2 = 0.2059) was 1151.9 kg/m3 and the mass density (303.15 K, x2 = 0.3937) was 1226.2 kg/m3. For the same compound, the mass density (303.15 K, x2 = 0.5023) was 1259.9 kg/m3, the mass density (303.15 K, x2 = 0.584) was 1281.8 kg/m3 and the mass density (303.15 K, x2 = 0.6946) was 1307.8 kg/m3. The mass density (303.15 K, x2 = 0.7788) was 1325.1 kg/m3, the mass density (303.15 K, x2 = 0.8707) was 1342.1 kg/m3 and the mass density (308.15 K, x2 = 0) was 1030.6 kg/m3. It also gave a mass density (308.15 K, x2 = 0.1011) of 1094 kg/m3, a mass density (308.15 K, x2 = 0.3937) of 1222 kg/m3 and a mass density (308.15 K, x2 = 0.5023) of 1255.7 kg/m3. For the same compound, the mass density (308.15 K, x2 = 0.584) was 1277.6 kg/m3, the mass density (308.15 K, x2 = 0.7788) was 1320.9 kg/m3 and the mass density (308.15 K, x2 = 0.8707) was 1337.9 kg/m3. It also gave a mass density (313.15 K, x2 = 0) of 1026.1 kg/m3, a mass density (313.15 K, x2 = 0.1011) of 1089.7 kg/m3 and a mass density (313.15 K, x2 = 0.2059) of 1143.5 kg/m3. It also gave a mass density (313.15 K, x2 = 0.3937) of 1217.9 kg/m3, a mass density (313.15 K, x2 = 0.584) of 1273.5 kg/m3 and a mass density (313.15 K, x2 = 0.7788) of 1316.7 kg/m3. The mass density (313.15 K, x2 = 0.8707) was 1333.6 kg/m3, the mass density (318.15 K, x2 = 0) was 1021.7 kg/m3 and the mass density (318.15 K, x2 = 0.3019) was 1180.3 kg/m3. The mass density (318.15 K, x2 = 0.3937) was 1213.7 kg/m3, the mass density (318.15 K, x2 = 0.5023) was 1247.4 kg/m3 and the mass density (318.15 K, x2 = 0.584) was 1269.3 kg/m3. It also gave a mass density (318.15 K, x2 = 0.6946) of 1295.2 kg/m3, a mass density (318.15 K, x2 = 0.7788) of 1312.5 kg/m3 and a mass density (318.15 K, x2 = 0.8707) of 1329.4 kg/m3. The mass density (323.15 K, x2 = 0.1011) was 1081.1 kg/m3, the mass density (323.15 K, x2 = 0.3937) was 1209.6 kg/m3 and the mass density (323.15 K, x2 = 0.5023) was 1243.3 kg/m3. The mass density (323.15 K, x2 = 0.584) was 1265.2 kg/m3, the mass density (323.15 K, x2 = 0.6946) was 1291 kg/m3 and the mass density (323.15 K, x2 = 0.7788) was 1308.3 kg/m3. For the same compound, the mass density (323.15 K, x2 = 0.8707) was 1325.2 kg/m3.
